Laboratory results: the supplement of paper PMC10681739
Over roughly 4,100 sequences, “arbitrary fluorescence units” has its median near 780; the highest 2% begin near 22,000. This is one part of the list.

These sequences were tested against T1, ETS1 (UniProt P14921) (assay: ETS1 binding intensity (PBM fluorescence), ETS1 alone (arbitrary fluorescence units); higher = stronger binding). Settings: ETS1 concentration 1 nM; RUNX1 concentration 0 nM.
T1 sequence: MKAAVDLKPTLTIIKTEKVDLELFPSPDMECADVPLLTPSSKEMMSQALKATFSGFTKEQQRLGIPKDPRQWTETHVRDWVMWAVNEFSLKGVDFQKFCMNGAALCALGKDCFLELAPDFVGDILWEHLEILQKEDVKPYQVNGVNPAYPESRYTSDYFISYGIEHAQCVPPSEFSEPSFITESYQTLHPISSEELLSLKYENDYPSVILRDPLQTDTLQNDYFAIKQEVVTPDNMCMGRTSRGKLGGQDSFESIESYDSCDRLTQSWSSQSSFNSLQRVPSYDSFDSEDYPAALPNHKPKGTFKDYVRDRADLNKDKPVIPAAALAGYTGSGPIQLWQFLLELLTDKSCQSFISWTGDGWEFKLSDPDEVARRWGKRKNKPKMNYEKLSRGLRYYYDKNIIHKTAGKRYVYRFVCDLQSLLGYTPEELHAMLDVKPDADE
How it was run: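 Full-length recombinant human ETS1 (1 nM, no RUNX1) was incubated, per standard PBM protocols, on double-stranded Agilent 4 × 180k arrays of 36-bp genomic probes whose RUNX1 partner site was mutated. Bound ETS1 was detected with anti-ETS1 antibody (Cell Signaling Technology 14069) and Alexa488-conjugated secondary antibody, then scanned on a GenePix 4400A. Binding level is spot fluorescence intensity, summarised over replicate spots (four printed per sequence) and not normalised.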
CAATGGAAAATCCGCCCCCGGAAAACACCAACTTCA showed an ETS1 binding intensity of 731.
TTTATCCTTATTTCCTGGCTTCGCCTACAAGCACAG was tested, and the ETS1 binding intensity was 5090.
In the case of CATACAGGATGCTGGGGTATGTAAAACAAAGCACGG, the ETS1 binding intensity is reported as 2620.
CCACCCAAAACTACAACCATTTCCCCCATCACTTTG was tested, and the ETS1 binding intensity was 565.
TGCTCCACTCCGCTACGCTGCTGTGATTTCCTGTTT was tested, and the ETS1 binding intensity was 929.
Sequence GCCAAGAAAGCACCCAATAGGAGGCCGGAAGCATCG has an ETS1 binding intensity of 793.
For CTCCGGCGGAAGTTGTCTCTTCGCCGCCGCTGCAGC, the ETS1 binding intensity was 4990.
For CGGGTACCGTAAGGGACAAACGGCGAGGCGGAACTC, the ETS1 binding intensity was 369.
TGGGACGAGTGGGCGGAAACAGCCGCTGGTCTCTCT was tested, and the ETS1 binding intensity was 1140.
CGGGCTGGGAGGAAGTGATGGCTGACAACAGAGGAG gave an ETS1 binding intensity of 1690.
ATGTTATTGTAGCTTCAAATTTCCTCTTGGCAAGCC gave an ETS1 binding intensity of 769.
In the case of CTCGGCCAGGAAGCACTGAGCCACTTCGGCATCGCA, the ETS1 binding intensity is reported as 591.
In the case of CGGGGTTTCCTGGTGGCTGCGAGCGCTGGGGACGGC, the ETS1 binding intensity is reported as 2660.
For AGCTTTTCGGGCTGTATCAGTCTCAGCAGGAAGAAG, the ETS1 binding intensity was 361.
For CCGTGTGCTGTGAGTTTTGGGGACAGGAAGCAAGCT, the ETS1 binding intensity was 846.
Sequence TAAGGATGTGTGGCTTCCAGATCAAAAATCGCAAAA has an ETS1 binding intensity of 470.
GTCGCCGGGATCACTGCAAACGCTTCCTGCTTGCGC was tested, and the ETS1 binding intensity was 1600.
With TGAATCATCCTGAGTTACCCGTTCTGTAATCGCCCC the ETS1 binding intensity was 582.
Work on CGCCTGCCCCACTTCCGCCCGGACCCTCAGCCCCTA yielded an ETS1 binding intensity of 15500.
In the case of CGACTTCCGTCCCTGGGTGGGATCGAACTACCAACC, the ETS1 binding intensity is reported as 18900.
Work on GGTGAAGGCTGAGGGGCGTCGCCGGAAGTGTCGTAA yielded an ETS1 binding intensity of 2240.
Sequence TGGAGCTGTTACGGGGTCCGCGGGGAAGTCTTGGCA has an ETS1 binding intensity of 364.
CTGTGTCCACGGTGCAAGGGGTTCCGGCGAGGCCAA showed an ETS1 binding intensity of 387.
GTCGTCAGCGTCTTCCTGTCAGCGGACGGCAGAGCC gave an ETS1 binding intensity of 5370.
Sequence GTTCTCCTTCCTGTGCCGAGTGTAGTTTGCTATCAA has an ETS1 binding intensity of 5480.
Work on CGAGGACGCGATTCCCAGAACGGAAGCAACCTGGGG yielded an ETS1 binding intensity of 774.
With GAGGTTCATGGGGTCCCTTTTCCGCTGTTCCCGGAG the ETS1 binding intensity was 857.
TATTCAGCAGGAAAGGAGAGAGTCTGTGATATCTGC showed an ETS1 binding intensity of 444.
In the case of TCCTGTAGTTTCCGGCTGAAGTGCTAAGGTTTTTGA, the ETS1 binding intensity is reported as 8180.
CCCATCGCCGAAGCTCAAGTTTGTTTCCTTTTCATC was tested, and the ETS1 binding intensity was 572.
AGAAAGAATCCGCGAGGCAAACGGAAGTATATAGGA was tested, and the ETS1 binding intensity was 1600.
CTCGCAACGACAGCAGCCGCGCAGGAAGTTCCTGTA was tested, and the ETS1 binding intensity was 881.
With CAAGCCACCTAACAGTGCACAGACAGCATCCTGAGC the ETS1 binding intensity was 421.
TTGTGGACGCGGATTTGGGGGCGGGTATCCGGGCCT was tested, and the ETS1 binding intensity was 564.
Sequence GGAGGCTGAGGGGGCCGCACTCAGCCGGAATCCCTG has an ETS1 binding intensity of 438.
